Counter-ions that a name gives are not always drawn. ± gives the standard deviation of the averaged measurements. This is one part of the list.
System: OVCAR8
Assay: cell count relative to DMSO vehicle (fold change); OVCAR8 is a high-grade serous ovarian cancer line and CX-5461 an RNA polymerase I inhibitor; higher = more surviving senescent cells (less killing)
Conditions: senescence inducer: CX-5461 3 µM 48 h, then 6 d recovery (CX senescent), exposure time 24 h

| Structure (SMILES) | cell count (compound dose 1 µM) | cell count (compound dose 5 µM) |
| --- | --- | --- |
| COc1cc([C@H]2C(C#N)=C(N)Oc3c2ccc(N)c3N)cc(Br)c1OC [Crolibulin] | 1.08 ± 0.025 | 1.11 ± 0.074 |
| CC(C)n1c(/C=C/C(O)CC(O)CC(=O)O)c(-c2ccc(F)cc2)c2ccccc21 (configuration not stated) [Fluvastatin (sodium)] | 0.729 ± 0.14 | 0.705 ± 0.25 |
| O=C1CCC[C@@H]2[C@H]3CCC[N+]4([O-])CCC[C@@H](CN12)[C@@H]34 (some centres not stated) [Oxymatrine] | 1.08 ± 0.25 | 1.123 ± 0.0078 |
| Cc1c(C)c2c(c(C)c1O)CCC(C)(C(=O)O)O2 (configuration not stated) | 1.12 ± 0.11 | 1.11 ± 0.12 |
| CC[C@H](C)C(=O)O[C@H]1C[C@@H](C)C=C2C=C[C@H](C)[C@H](CC[C@@H]3C[C@@H](O)CC(=O)O3)[C@H]21 [Lovastatin] | 0.792 ± 0.17 | 0.704 ± 0.13 |
| O=c1cc(-c2ccccc2)oc2cc(O)c(O)c(O)c12 | 1.03 ± 0.043 | 1.02 ± 0.23 |
| CCN(CC)CCCNc1cc2nc3n(c(=O)c2cc1F)CC/C3=C\c1ccc(C(C)C)cc1 | 1.13 ± 0.027 | 1.15 ± 0.31 |
| O=C1c2ccccc2-c2nc3nnnn3nc21.O=C1c2ccccc2-c2nn3nnnc3nc21 | 0.202 ± 0.088 | 0.0855 ± 0.039 |
| Oc1cc2c(cc1O)CN(C(=S)NCCc1ccc(Cl)cc1)CCC2 [Capsazepine] | 1.01 ± 0.12 | 0.7435 ± 0.0021 |
| CC(=O)NC1=NN(C(C)=O)C(C)(c2ccccc2)S1 (racemic) [K858 (Racemic)] | 1.13 ± 0.079 | 0.927 ± 0.023 |
| O=C(O)COc1ccccc1C(Nc1ccccn1)c1cc(Cl)c2cccnc2c1O (configuration not stated) | 1.08 ± 0.23 | 0.941 ± 0.037 |
| CC(C)CN(CC(=O)N1CCN(CC(OCc2ccc3ccccc3c2)c2ccc(Cl)cc2Cl)CC1)CC(C)C (configuration not stated) [LYN-1604 (dihydrochloride)] | 1.2 ± 0.29 | 1.03 ± 0.18 |
| O=C(O)CCCCC(CCSCc1ccccc1)SCc1ccccc1 (configuration not stated) [Devimistat] | 1 ± 0.094 | 1.04 ± 0.069 |
| O=C(O)C1=CO[C@@H](O[C@@H]2O[C@H](CO)[C@@H](O)[C@H](O)[C@H]2O)[C@@H]2C(CO)=CC[C@H]12 [Geniposidic acid] | 1.05 ± 0.24 | 0.994 ± 0.2 |
| CCCCCNC(=N)N/N=C/c1c[nH]c2ccc(OC)cc12 | 1.145 ± 0.0021 | 1.17 ± 0.068 |
| O=C(CCCCCCC(=O)Nc1ccc(CN[C@H](C(=O)OC2CCCC2)c2ccccc2)cc1)NO [Tefinostat] | 1.12 ± 0.061 | 1.34 ± 0.033 |
| COc1c(C)c2c(c(O)c1C/C=C(\C)CCC(=O)O)C(=O)OC2 | 1.1 ± 0.026 | 1.12 ± 0.1 |
| Cc1cc(Cl)ccc1OCCCC(=O)NO [Droxinostat] | 0.936 ± 0.15 | 1.05 ± 0.17 |

| Structure (SMILES) | cell count (compound dose 1 µM) | cell count (compound dose 5 µM) |
| --- | --- | --- |
| O=C(c1ccc(/C=C/c2n[nH]c3ccccc23)cc1)N1CCNCC1 | 1.08 ± 0.18 | 0.934 ± 0.027 |
| C/C(=C\C(=O)Nc1ccccc1C(=O)O)c1ccc2ccccc2c1 | 1.02 ± 0.28 | 1.05 ± 0.15 |
| CNC(=O)[C@@H](c1ccccc1)N1CCc2cc(OC)c(OC)cc2[C@@H]1CCc1ccc(C(F)(F)F)cc1 [Almorexant] | 1.01 ± 0.17 | 1.1 ± 0.27 |
| CCCCCCCC/C=C1\C=C(C(F)(F)F)c2cc(O)c(O)cc21 | 0.606 ± 0.36 | 0.0595 ± 0.077 |
| O=C(c1cc(-c2cc3c(cc2C(=O)N2Cc4ccccc4C[C@H]2CN2CCOCC2)OCO3)n2c1CCCC2)N(c1ccccc1)c1ccc(O)cc1 | 1.13 ± 0.035 | 0.832 ± 0.27 |
| CNC(=O)c1ccccc1Nc1nc(Nc2ccc(N3CCOCC3)cc2OC)ncc1Cl | 1.23 ± 0.042 | 1.1 ± 0.18 |
| CCCn1/c(=N/C(=O)c2cccc(C(N)=O)c2)[nH]c2ccccc21 [Takinib] | 1.14 ± 0.22 | 1.16 ± 0.26 |
| CCOC(=O)C1=C(C)NC(C)=C(C(=O)OCC)C1c1ccccc1/C=C/C(=O)OC(C)(C)C [Lacidipine] | 1.07 ± 0.29 | 1.12 ± 0.29 |
| O=S(=O)(c1ccccc1)N(CC(F)(F)F)c1ccc(C(O)(C(F)(F)F)C(F)(F)F)cc1 | 1.05 ± 0.29 | 1.07 ± 0.4 |
| Cc1nc2cccc(N)c2c(=O)n1C1CCC(=O)NC1=O (configuration not stated) [Avadomide] | 1.07 ± 0.13 | 1.07 ± 0.14 |
| CS(=O)(=O)N1CCN(Cc2cc3nc(-c4cccc5[nH]ncc45)nc(N4CCOCC4)c3s2)CC1 [Pictilisib (GDC-0941)] | 1.12 ± 0.027 | 1.04 ± 0.04 |
| Cc1cc(N2CCOCC2)cc2[nH]c(-c3c(NC[C@@H](O)c4cccc(Cl)c4)cc[nH]c3=O)nc12 | 0.825 ± 0.21 | 0.942 ± 0.34 |
| Cc1cc(O)c(C(=O)CCC(C)C)c(=O)o1 [Pogostone] | 1.02 ± 0.24 | 1.05 ± 0.088 |
| Nc1nc2c(ncn2COCCO)c(=O)[nH]1 | 1.12 ± 0.11 | 1.02 ± 0.032 |
| CC1(C)SCCN(S(=O)(=O)c2ccc(OCC#CCO)cc2)[C@H]1C(=O)NO [Apratastat] | 0.507 ± 0.14 | 0.436 ± 0.12 |
| CC1(C)C2=CCCC(C)(C)[C@]23CC[C@H]1C3 [Isolongifolene] | 1.01 ± 0.031 | 1.07 ± 0.042 |
| COc1ccc(C(=O)CC(=O)c2ccc(C(C)(C)C)cc2)cc1 | 1.18 ± 0.086 | 1.08 ± 0.1 |
| CC(C)(C)c1ccc(C(=O)NC(=S)Nc2ccc(N)cc2)cc1 [Tenovin-3] | 1.01 ± 0.11 | 0.988 ± 0.12 |

— the supplement of paper PMC12462457
